Source: publication PMC4336329 (PLoS ONE, 2015)
Among all 310,000 compounds or so, about 2,200 (0.71%) showed an effect of 50% or more. Effects have a minus sign here. Some of the results follow.

The compounds below were run against human ether-à-go-go-related gene (hERG) potassium channel (human, UniProt Q12809) (assay: primary screen, population patch clamp on CHO cells stably expressing hERG).
Sequence of human ether-à-go-go-related gene (hERG) potassium channel (Q12809 whole entry, looked up): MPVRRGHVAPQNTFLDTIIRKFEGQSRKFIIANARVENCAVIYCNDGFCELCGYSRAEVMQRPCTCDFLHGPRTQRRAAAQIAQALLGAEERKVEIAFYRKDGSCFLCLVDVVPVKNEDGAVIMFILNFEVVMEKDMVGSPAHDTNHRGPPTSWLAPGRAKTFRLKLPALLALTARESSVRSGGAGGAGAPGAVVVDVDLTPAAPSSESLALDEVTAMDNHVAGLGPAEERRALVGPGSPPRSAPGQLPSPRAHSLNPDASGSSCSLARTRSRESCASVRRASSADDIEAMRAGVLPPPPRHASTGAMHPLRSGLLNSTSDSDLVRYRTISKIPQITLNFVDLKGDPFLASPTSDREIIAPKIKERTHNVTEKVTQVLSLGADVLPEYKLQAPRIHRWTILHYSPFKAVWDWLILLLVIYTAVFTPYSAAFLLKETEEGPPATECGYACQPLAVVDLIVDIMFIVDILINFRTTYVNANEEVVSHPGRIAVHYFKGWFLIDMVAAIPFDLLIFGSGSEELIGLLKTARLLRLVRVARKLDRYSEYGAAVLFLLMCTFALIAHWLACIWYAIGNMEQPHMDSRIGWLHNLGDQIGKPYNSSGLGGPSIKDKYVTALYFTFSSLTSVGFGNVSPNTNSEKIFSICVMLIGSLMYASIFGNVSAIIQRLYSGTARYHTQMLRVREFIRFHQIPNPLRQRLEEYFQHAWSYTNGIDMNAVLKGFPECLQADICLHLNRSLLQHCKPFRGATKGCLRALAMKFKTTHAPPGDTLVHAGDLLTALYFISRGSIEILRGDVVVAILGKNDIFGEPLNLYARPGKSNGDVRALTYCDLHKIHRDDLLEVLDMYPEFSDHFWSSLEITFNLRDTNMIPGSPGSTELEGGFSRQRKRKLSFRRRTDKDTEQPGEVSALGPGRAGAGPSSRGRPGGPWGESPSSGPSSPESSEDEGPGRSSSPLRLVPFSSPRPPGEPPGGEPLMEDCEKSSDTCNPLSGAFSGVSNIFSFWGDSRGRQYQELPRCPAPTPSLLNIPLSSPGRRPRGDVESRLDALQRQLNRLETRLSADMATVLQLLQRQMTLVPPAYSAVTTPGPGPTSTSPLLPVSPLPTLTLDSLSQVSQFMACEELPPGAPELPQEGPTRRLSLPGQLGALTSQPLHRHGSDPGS

Compound	hERG current change (%, negative = inhibition) at 1uM
Cn1c(=O)c2c(nc(SCc3ccccc3F)n2C)n(C)c1=O	7.45%
O=C(CNC(=O)c1ccco1)NCC(=O)OCc1ccccc1Cl	4.73%
COc1cc(NC(=S)NC2CC(C)(C)NC(C)(C)C2)c(OC)cc1Cl	13.2%
O=C(NCCCc1ccncc1)C1CCC(=O)N(CCc2cccc(F)c2)C1 (centres unmarked)	-3.6%
CN(CC(=O)Nc1ccc(C#N)cc1)Cc1ccc(Cl)cc1Cl	-29.1%
CC(C)C1=CC(=NS(=O)(=O)c2cccc([N+](=O)[O-])c2)C=C(C(C)C)C1=O	12.7%
O=C(NC1CCN(Cc2ccccc2)CC1)c1ccccc1OCc1ccccc1Cl	7.01%
COc1ccc(NS(=O)(=O)c2ccc3c(c2)CCC(=O)N3)c(OC)c1	4.2%
COCCNC(=S)N/N=C/c1ccc(N2CCOCC2)cc1	9.23%
CCN(CC)S(=O)(=O)c1cc(C(=O)Nc2cc(C)[nH]n2)ccc1Cl	4.18%
O=C(N/N=C/c1cccc([N+](=O)[O-])c1)c1cc(-c2ccccc2)nc2ccccc12	6.94%
COc1ccc(S(=O)(=O)Cc2ccc(C(=O)N3CCC(C(N)=O)CC3)o2)cc1	20.7%
CCN(C(=O)c1ccnc(C(C)(C)C)c1)c1ccccc1	1.64%
CCOC(=O)N/N=C(C)/C=C/c1ccccc1	12.4%
O=C(CSCc1ccco1)Nc1cc(C(F)(F)F)ccc1N1CCOCC1	16.6%
Cc1cc(=O)nc2c3ccccc3n(CC(=O)NCCCN3CCOCC3)n12	12%
C/C(Cn1nnc([N+](=O)[O-])n1)=N\NC(=O)c1ccccc1Cl	13.5%
Cc1c(CCO)c(=O)oc2n[nH]c(-c3ccccc3)c12.Cl	6.37%
CCOC(=O)C1CCN(Cc2cccc(OCc3ccccc3)c2)CC1.O=C(O)C(=O)O	-8.38%
CCc1nnc(NC(=O)C2CCCN2C(=O)Nc2ccc(C)cc2)s1 (centres unmarked)	8.89%
CCOc1ccc(C(=O)OCC(=O)Nc2cccc(S(=O)(=O)N3CCCC3)c2)cc1	5.6%
Cc1cc(C)nc(NC(=NCCc2c[nH]c3ccccc23)NC(=O)c2ccco2)n1	7.86%
O=C(O)CCS(=O)(=O)c1nc(-c2cccs2)cc(C(F)(F)F)n1	-3.88%

Compound	hERG current change (%, negative = inhibition) at 1uM
CCOC(=O)c1c(NC(=O)Cc2cccs2)sc(C(=O)NC2CCCCC2)c1C	14.3%
O=C(O)CNC(=O)c1ccc(OC(F)F)cc1	13.3%
CC(=O)NCCC(=O)Nc1nc2ccc(Oc3ccccc3)cc2s1	2.19%
O=[N+]([O-])c1cccc(-c2cc(C(F)(F)F)n3nc(-c4ccccc4)cc3n2)c1	10%
Cc1cc(C)c(C(=O)Nc2ccc(S(=O)(=O)Nc3onc(C)c3C)cc2)c(C)c1	4.08%
CCCn1c(C(O)c2ccc(C)cc2)nc2ccccc21 (centres unmarked)	17.8%
Cc1ccc(Oc2c(F)c(F)nc(N3CCCC3)c2F)cc1	4.44%
CC(C)OC(=O)N(C)c1ccc(C(O)(C(F)(F)F)C(F)(F)F)cc1	-3.18%
CCOC(=O)/C(C#N)=C1\Nc2ccccc2N=C1N(CC(C)C)CC(C)C	10.6%
CCN(CC)CCNC(=O)CCCNC(=O)Cn1cnc2sc(C)c(C)c2c1=O	4.5%
O=C(Nc1ccccc1C(F)(F)F)c1cc2ccccc2o1	15.8%
CC(=O)Nc1ccc(S(=O)(=O)Nc2nccc(C)n2)cc1	1.61%
CCOc1ccc(NC(=O)Cc2cccc3ccccc23)c([N+](=O)[O-])c1	10.9%
CC(C)NC(=O)CCc1nc2cccnc2n1-c1ccccc1	4.54%
C=CCNC(=S)Nc1cccc(N)c1	-7.19%
CC(=O)Nc1ccc(NC(=O)CCCSc2nc3ccccc3[nH]2)cc1	2.66%
Cc1ccc(Oc2nc(CN3CCOCC3)nc3sc4c(c23)CCC(C)C4)cc1 (centres unmarked)	6.62%
COc1ccc(/C=N/c2oc(-c3ccccc3)cc2C#N)cc1OC	5.99%
Cc1cccc(NS(=O)(=O)c2c(C(=O)N3CCOCC3)c(C)n(C)c2C)c1C	18.8%
C=CCn1cccc(C(=O)Nc2ccc(OCC)cc2)c1=O	4.1%
CCOC(=O)/C=C(\C)N1N=C(c2ccccc2)CC1c1ccccc1 (centres unmarked)	7.11%
CC(C)c1ccc(N=Cc2c(O)n(C3CC3)c(=S)[nH]c2=O)cc1	8.16%
COc1ccc(/C=N\NC(=O)c2ccccc2)cc1COc1ccccc1	16.7%

Compound	hERG current change (%, negative = inhibition) at 1uM
CCc1noc(C)c1C(=O)Nc1nnc(C(CC)CC)s1	-3.95%
O=C(Cc1cc(=O)[nH][nH]1)N/N=C/c1c(Cl)cccc1Cl	12%
COc1ccc(N=C(N)SCc2ccccn2)cc1.Cl	0.799%
Cn1c(-n2c(CCCN3C(=O)c4ccccc4C3=O)nc3ccccc3c2=O)nc2ccccc21	7.43%
N#C/C(=C(/O)c1ccc(C(=O)c2ccccc2)cc1)c1nc2ccccc2[nH]1	9.44%
COc1ccc(OC)c(C(=O)CSc2nccc(-c3ccc(Br)cc3)n2)c1	11.9%
CN(C)CCCn1c2c(c(SCC(=O)Nc3nccs3)nc1=O)CCC2	-0.215%
Cc1cc(C(=O)OCC(=O)Nc2ccc(F)c(F)c2)c(C)o1	13.3%
CC12CCC(C(=O)Nc3ccccc3Cl)([C@H](Br)C1=O)C2(C)C (some centres unmarked)	15.4%
COc1ccc(CNC(=O)CN(C(=O)CCC(=O)Nc2nccs2)c2cccc(C)c2)cc1	21.6%
O=C(O)C1CCN(S(=O)(=O)N2CCOCC2)CC1	8.3%
CCCN(CCC)CCCNC(=O)c1cn(CCOC)c(=O)c2c1c1ccccc1n2C	0.949%
O=C(O)C(Cc1ccccc1)N1C(=O)C2CCCCC2C1=O (centres unmarked)	11.1%
COc1ccc(-c2cnc(SCCNC(=O)c3ccc4c(c3)OCO4)[nH]2)cc1	2.78%
COc1ccc(C(=O)c2c[nH]c(C(=O)N=CN(C)C)c2)cc1	8.77%
CCn1nc(NC(=O)c2cccs2)c2cc3ccccc3nc21	14.8%
O=C(O)c1cccc(S(=O)(=O)Nc2ccccc2N2CCOCC2)c1	-0.987%
Cc1ccc(Oc2c(C=O)c3ccccc3n2C)cc1	4.83%
CC(C)CNc1ncnc2c1cnn2Cc1ccccc1Cl	9.47%
C=C(C)C(=O)N1CC2(CC(c3cccc(NC(=O)COc4ccc(Cl)cc4)c3)=NO2)C[C@@H]1C(N)=O (some centres unmarked)	1.81%
Cc1ccc(Oc2cc(NC(=O)CCCn3nc([N+](=O)[O-])c(Cl)c3C)cc([N+](=O)[O-])c2)cc1	11.1%
C=CCNC(=O)Cc1c(OC)ccc2cc(Br)ccc12	11.7%
CCC(=O)c1ccc(OCC(O)CN2CCN(c3ccc(F)cc3)CC2)cc1 (centres unmarked)	-15.1%

Compound	hERG current change (%, negative = inhibition) at 1uM
CCCn1ncc(CN2CCC(n3nccc3NC(=O)c3ccccc3Cl)CC2)c1C	-47.6%
Nn1c(COc2cccc(Br)c2)nnc1SCC(=O)N1CCc2ccccc2C1	3.67%
C/C(N)=C(/C#N)C(=O)COC(=O)Cc1coc2ccc3ccccc3c12	22.8%
Cc1ccc(C(=O)Nc2nncs2)cc1S(=O)(=O)N1CCOCC1	-2.31%
COc1ccccc1OCCn1c(C)c(C=O)c2ccccc21	11%
COc1ccc(NC(=S)N2CCN(C/C=C/c3ccccc3)CC2)c(OC)c1	-32.9%
COc1ccc(C(=O)c2c[nH]c(C(=O)NCc3ccco3)c2)cc1	1.11%
O=C(N1CCCCCC1)n1c(Cc2ccccc2)nc2ccccc21	-0.756%
COc1ccc(C(=O)N2CC(=O)N(CCc3ccccc3)C(=O)C2)cc1OC	9.3%
O=C(COC(=O)/C=C/c1ccco1)Nc1ncc(C(F)(F)F)cc1Cl	-0.739%
COc1cc(C(=O)O)cc(NC(=O)c2cccs2)c1OC	13.4%
Cc1ccc(C)c(NC(=O)C(Sc2cccc[n+]2[O-])c2ccccc2)c1 (centres unmarked)	3.72%
COCCCn1c(-c2ccc(OC)cc2)cc(C(=O)NC2CCCCCCC2)c1C	0.513%
CCOC(=O)c1cnc(-n2nc(C)cc2C)[nH]c1=O	-19.8%
CCc1nnc(NC(=O)CSC(=S)N2CCOCC2)s1	13%
O=C(O)c1ccc2c(c1)C(=O)N(C(Cc1ccc(O)cc1)C(=O)O)C2=O (centres unmarked)	15.7%
CS(=O)(=O)N1CCN(c2ccccc2NC(=O)C(c2ccccc2)c2ccccc2)CC1	12%
CCCc1cc(C(=O)Nc2nccs2)cs1	4.77%
CCN(Cc1cc(=O)[nH]c2ccccc12)C(=O)C(C)C	5.42%
CCOC(=O)N1CCN(C(=O)c2cc(COc3ccc(F)cc3F)on2)CC1	11.3%
